Laboratory results taken from the supplement of paper PMC7826260.
The list shows a part of the results. Cleavage of a single-stranded DNA pool by Rep nickase domains was read by sequencing for 1 h at 37 °C with 3 µM enzyme; only the middle of the 90-letter strands is printed. The score is log2 (uncut reads / reads without enzyme); the lower, the more was cut; hits are not called. The scaling is to total reads, so uncut sequences can rise above 0 when many others are cut.

What was measured:
Assay in all cases: uncleaved DNA left, log2 of reads against the no-enzyme library (log2 ratio); higher = less cleavage (more negative = more Rep cleavage of the k-mer); sequences stand for … in CTCGTCCG…ACCGGAGA
[1] = test system: T1, Rep nickase domain of Muscovy duck circovirus
T1 sequence (residues 1-111 of Rep, tag left off): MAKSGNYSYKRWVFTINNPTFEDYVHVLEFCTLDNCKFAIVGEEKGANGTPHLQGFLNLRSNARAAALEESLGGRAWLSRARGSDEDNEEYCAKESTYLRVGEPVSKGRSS
Description: (§1)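 A pool of 90-nt single-stranded DNAs with seven random bases just before the constant AC of the nick site (name = the seven bases) was cut by 3 µM recombinant His6-SUMO-tagged Rep nickase domain (300 nM DNA, 50 mM HEPES pH 8.0, 50 mM NaCl, 1 mM MnCl2, 1 h, 37 °C, three replicates). Uncut DNA was amplified and sequenced.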

[2] = test system: T2, Rep nickase domain of banana bunchy top virus
T2 sequence (residues 1-94 of Rep, tag left off): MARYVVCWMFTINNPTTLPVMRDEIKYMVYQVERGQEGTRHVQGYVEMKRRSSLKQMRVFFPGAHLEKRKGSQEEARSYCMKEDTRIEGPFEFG
Description: as §1

[3] = test system: T3, Rep nickase domain of cabbage leaf curl virus
T3 sequence (residues 1-116 of Rep, tag left off): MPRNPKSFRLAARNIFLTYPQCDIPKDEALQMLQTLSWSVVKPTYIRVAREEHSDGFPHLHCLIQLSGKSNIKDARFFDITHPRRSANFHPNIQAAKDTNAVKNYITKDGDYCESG
Description: as §1

[4] = test system: T4, Rep nickase domain of chickpea chlorotic dwarf virus
T4 sequence (residues 1-124 of Rep, tag left off): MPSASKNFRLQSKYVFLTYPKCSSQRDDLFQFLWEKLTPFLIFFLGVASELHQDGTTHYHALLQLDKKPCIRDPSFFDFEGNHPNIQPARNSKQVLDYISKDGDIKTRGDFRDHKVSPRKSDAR
Description: as §1

[5] = test system: T5, Rep nickase domain of faba bean necrotic yellows virus
T5 sequence (residues 1-98 of Rep, tag left off): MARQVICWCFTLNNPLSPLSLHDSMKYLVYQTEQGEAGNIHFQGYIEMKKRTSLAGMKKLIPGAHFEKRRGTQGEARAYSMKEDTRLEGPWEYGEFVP
Description: as §1

[6] = test system: T6, Rep nickase domain of maize striate mosaic virus
T6 sequence (residues 1-117 of Rep, tag left off): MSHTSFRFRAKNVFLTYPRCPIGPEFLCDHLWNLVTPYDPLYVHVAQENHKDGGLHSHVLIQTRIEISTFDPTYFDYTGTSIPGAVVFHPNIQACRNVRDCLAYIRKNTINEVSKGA
Description: as §1

[7] = test system: T7, Rep nickase domain of porcine circovirus 2
T7 sequence (residues 2-116 of Rep, tag left off): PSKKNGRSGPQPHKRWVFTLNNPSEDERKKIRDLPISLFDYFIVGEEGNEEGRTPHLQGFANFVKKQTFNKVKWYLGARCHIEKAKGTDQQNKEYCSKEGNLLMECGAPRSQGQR
Description: as §1

[8] = test system: T8, Rep nickase domain of tomato yellow leaf curl virus
T8 sequence (residues 1-136 of Rep, tag left off): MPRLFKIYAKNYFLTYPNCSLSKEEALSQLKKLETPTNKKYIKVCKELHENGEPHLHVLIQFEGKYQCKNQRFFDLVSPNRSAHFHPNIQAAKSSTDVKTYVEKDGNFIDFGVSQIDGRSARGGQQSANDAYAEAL
Description: as §1

[9] = test system: T9, Rep nickase domain of wheat dwarf virus
T9 sequence (residues 1-137 of Rep, tag left off): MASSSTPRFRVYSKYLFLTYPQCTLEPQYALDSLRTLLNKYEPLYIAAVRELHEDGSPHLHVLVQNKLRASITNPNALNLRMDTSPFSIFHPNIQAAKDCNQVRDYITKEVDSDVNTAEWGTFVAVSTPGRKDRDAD
Description: as §1

| Sequence | uncleaved DNA left (log2) [1] | uncleaved DNA left (log2) [2] | uncleaved DNA left (log2) [3] | uncleaved DNA left (log2) [4] | uncleaved DNA left (log2) [5] | uncleaved DNA left (log2) [6] | uncleaved DNA left (log2) [7] | uncleaved DNA left (log2) [8] | uncleaved DNA left (log2) [9] |
| --- | --- | --- | --- | --- | --- | --- | --- | --- | --- |
| CCAGCCA | -0.0448 | 0.0526 | 0.00573 | -0.991 | 0.111 | -0.642 | 0.0127 | -0.082 | 0.103 |
| CCTGGGT | -0.0207 | 0.00816 | 0.114 | 0.658 | 0.0034 | 0.651 | -0.074 | -0.0597 | -0.0819 |
| AGTGGAC | 0.0749 | 0.0973 | 0.699 | 1.84 | 0.0454 | 2.07 | 0.254 | 0.139 | 0.117 |
| ATCTCGA | -0.0592 | -0.0308 | -0.429 | -0.588 | -0.0319 | -1.06 | 0.0454 | -0.0876 | -0.0823 |
| TAGTGTA | -0.429 | -0.855 | -0.109 | -1.49 | -0.711 | 0.365 | -2.9 | -0.00292 | -0.0268 |
| TAGGACC | 0.144 | 0.137 | 0.255 | 0.866 | 0.0547 | 0.682 | 0.0854 | 0.179 | 0.187 |
| TGATGTG | 0.013 | -0.069 | -0.749 | -0.316 | 0.0298 | -1.04 | 0.133 | -0.0231 | -0.13 |
| CCAACAT | 0.103 | 0.1 | 0.263 | -0.305 | -0.0432 | 0.458 | 0.141 | 0.092 | 0.186 |
| TTTGAGA | 0.0345 | -0.000522 | -0.283 | -0.413 | 0.105 | -1.08 | 0.11 | 0.0319 | -0.109 |
| TGTTCCG | -0.032 | -0.1 | -0.97 | -0.326 | -0.0868 | -1.17 | 0.022 | -0.0996 | -0.152 |
| TCTTGCC | 0.0217 | -0.0705 | -0.691 | -0.685 | 0.0538 | -1.25 | 0.0746 | -0.0267 | -0.0962 |
| GGGCACG | 0.0036 | 0.043 | 0.735 | 1.66 | -0.115 | 1.96 | 0.116 | -0.0938 | 0.0955 |
| GAACGTT | 0.124 | -0.0676 | 0.44 | -0.583 | -0.0777 | 1.72 | -0.0808 | -0.0175 | 0.0501 |
| TGCATGA | 0.0563 | 0.0137 | -0.0103 | 0.0605 | -0.0166 | -0.609 | -0.0544 | -0.0214 | -0.101 |
| CATGGAT | 0.0265 | -0.056 | 0.147 | 1.51 | -0.0949 | 1.78 | 0.112 | -0.157 | -0.126 |
